Results from article PMC7819943, “Rice protein-binding microarrays: a tool to detect cis-acting elements near promoter regions in rice”.
The other results are listed elsewhere or left out.

biological target: T1, OsWOX13 (Oryza sativa, UniProt Q5QMM3 1-267); assay: protein-binding microarray (RPBM); PBS, 2% BSA, 51.3 ng/ul salmon testes DNA, 50 uM zinc acetate, 200 nM TF, 25 C, 1 h; high values mean tight binding; settings: protein: recombinant; tags: N-terminal polyhistidine and DsRed monomer fusion (pET32a); label: CyDye5-dUTP incorporated in the synthesized complementary strand; 3' TTTTT single-stranded linker to array surface; dsDNA, one strand shown
T1 sequence: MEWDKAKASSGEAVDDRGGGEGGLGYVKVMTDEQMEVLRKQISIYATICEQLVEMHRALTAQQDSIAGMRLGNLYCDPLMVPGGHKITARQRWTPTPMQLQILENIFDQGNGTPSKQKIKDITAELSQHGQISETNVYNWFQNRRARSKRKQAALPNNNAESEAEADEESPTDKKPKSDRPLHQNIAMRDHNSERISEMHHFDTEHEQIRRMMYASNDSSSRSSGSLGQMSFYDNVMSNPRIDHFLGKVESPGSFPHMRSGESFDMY
How it was run: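 The binding signal is fluorescence intensity per feature, in arbitrary units, read on an Axon 4000B scanner. Polyhistidine- and DsRed-tagged transcription factors (N-terminal fusions) from E. coli BL21-CodonPlus were purified on Ni–NTA and applied at 200 nM for 1 h at 25 °C to a double-stranded, BSA-blocked custom Agilent array in buffer with 50 µM zinc acetate.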

In order of falling binding signal:
1. GCTGATTGAGAGTAGTAGTATTCTTTAGAGTAGTAGTATTCGGAGTCACCTAGTGCAG  47200 fluorescence intensity (a.u.)
2. AAGAATTGATAGATGAAACGTGATTAGATACTAACTATACCGGAGTCACCTAGTGCAG  41200 fluorescence intensity (a.u.)
3. GTCACCAATCAATGGAAGTAATCAATCACCACCGGTAGATCGGAGTCACCTAGTGCAG  33600 fluorescence intensity (a.u.)
4. TATAGAAATTGCTGATTGGTTACGTCGCAACTACTCTGACCGGAGTCACCTAGTGCAG  32400 fluorescence intensity (a.u.)
5. AGTGTAACACTTAATTGAATTCAATCTCCAACTTGACTGTCGGAGTCACCTAGTGCAG  30500 fluorescence intensity (a.u.)
6. AATTGGTTGATTGATTCCACCATCCTAGGCTGTGTTTAATCGGAGTCACCTAGTGCAG  29900 fluorescence intensity (a.u.)
7. TTAAATTGAAACATATGAGATCACTTGAAAGCTAATGAGTCGGAGTCACCTAGTGCAG  29300 fluorescence intensity (a.u.)
8. GGTGTGATTTACCGAGACAGACGAAGAGGACGGAGAAGGGCGGAGTCACCTAGTGCAG  23800 fluorescence intensity (a.u.)
9. GCAAACCAATTAACTAGCCTTTAATTTGCGGTACGCTTCTCGGAGTCACCTAGTGCAG  22800 fluorescence intensity (a.u.)
10. TTTCTTTTACTAATTGTTTGCTAATTAATGAATGTATGGCCGGAGTCACCTAGTGCAG  19500 fluorescence intensity (a.u.)
11. AATTACTGTCATGATTTGAATTTGCAATCATTTCCTGTACCGGAGTCACCTAGTGCAG  18800 fluorescence intensity (a.u.)
12. AAACTAATTTTAGTGTGAAGTAAACATACCCTATGAATGGCGGAGTCACCTAGTGCAG  17800 fluorescence intensity (a.u.)
13. AATAAGTAAATTGGTAGCCTAACTAGTCTAGAAATATGTTCGGAGTCACCTAGTGCAG  17800 fluorescence intensity (a.u.)
14. CATATTTTGAGATTGACAAAGTTATCATGGATGTCTTGCTCGGAGTCACCTAGTGCAG  16900 fluorescence intensity (a.u.)
15. TTTCTTTATTGACGAGATCTTTTCCATTTTGAAATTTGTGCGGAGTCACCTAGTGCAG  16600 fluorescence intensity (a.u.)
16. CAGCTCGTTGACATTCCTAATTGTTTTGATTGTCATCCACCGGAGTCACCTAGTGCAG  14800 fluorescence intensity (a.u.)
17. ATTGGAGCTATCAATTAGCCATGTCATGTGTAGGTGCGTTCGGAGTCACCTAGTGCAG  13800 fluorescence intensity (a.u.)
18. ATAGAAATTATAAATTATATTGGATGAGAAGTCTAGAATACGGAGTCACCTAGTGCAG  13300 fluorescence intensity (a.u.)
19. GTTTAGTTTAAAATTAACACCAATTATTACTACTAGGACTCGGAGTCACCTAGTGCAG  12600 fluorescence intensity (a.u.)
20. TTGGCCTTAATCAATAATCACAAATTTCTGTGTGCAGTGCCGGAGTCACCTAGTGCAG  12000 fluorescence intensity (a.u.)
21. GTTGAGACAACATATTAATTTGACTATAATTTATGGTACACGGAGTCACCTAGTGCAG  11000 fluorescence intensity (a.u.)
22. ATAAATGAAATTGGATGGATGCCAAACTTTTGAGCTAATCCGGAGTCACCTAGTGCAG  10700 fluorescence intensity (a.u.)
23. TGTGACAGAATGAGAAAGCAATTGTTGTCTTGGATGGTTGCGGAGTCACCTAGTGCAG  10500 fluorescence intensity (a.u.)
24. GCATTTCTGACATGATTTTCCCTAATCTATTTACAGGAGGCGGAGTCACCTAGTGCAG  10300 fluorescence intensity (a.u.)
25. CACATAATTTTAGAGACCATCCATACACTTCTCTAATGACCGGAGTCACCTAGTGCAG  9180 fluorescence intensity (a.u.)
26. GTCGTAAATTTCGGAAATTTGGCTTCCGTAGCTGCATGCGCGGAGTCACCTAGTGCAG  8540 fluorescence intensity (a.u.)
27. CATCAAAATTGAAAGTTTGGAAGTTTGGTTGAAATTGGAACGGAGTCACCTAGTGCAG  7900 fluorescence intensity (a.u.)
28. TAATTAATCTATCATTAGCGTATATTTACTGTAGCAATACCGGAGTCACCTAGTGCAG  7440 fluorescence intensity (a.u.)
29. ATGGTAATTGCAGAGCAGGAATCAAGCTGGCCTGCCACTCCGGAGTCACCTAGTGCAG  6710 fluorescence intensity (a.u.)
30. TGCAGTGGTTAATTTATAACATCAAGAGACATCTGATGATCGGAGTCACCTAGTGCAG  6350 fluorescence intensity (a.u.)
31. TCGATCACAAATTAATATTGTTTGCATACATACTCATATGCGGAGTCACCTAGTGCAG  6200 fluorescence intensity (a.u.)
32. CAGGCTTTCATGATTGTAAATTGTACAGAGTATGAATGTTCGGAGTCACCTAGTGCAG  6100 fluorescence intensity (a.u.)
33. ACGTGACTGAAAACTCTGAAACGCTGGGAATTTCTGAAAGCGGAGTCACCTAGTGCAG  6030 fluorescence intensity (a.u.)
34. AAAATTGCAATATTTAGATTTGTTCTTTTATGCATCGCATCGGAGTCACCTAGTGCAG  5510 fluorescence intensity (a.u.)
35. AATCATTATACTAATCAACCATACTTATATTATCGATAAGCGGAGTCACCTAGTGCAG  5440 fluorescence intensity (a.u.)
36. GTACCCATACCCATATAATTGACTTGTAGAATTTATAGTTCGGAGTCACCTAGTGCAG  4950 fluorescence intensity (a.u.)
37. ATTTTGTGGTAATCTATACAAATTACTATATCCCCAATTGCGGAGTCACCTAGTGCAG  4670 fluorescence intensity (a.u.)
38. AAAAGTAAATTAGAGCGAGATACGTATGAATGGAGTGGAACGGAGTCACCTAGTGCAG  4540 fluorescence intensity (a.u.)
39. TCTCTTATTGATGAACTCTTGAAGGGAACGGAAATCGAAACGGAGTCACCTAGTGCAG  4390 fluorescence intensity (a.u.)
40. CGAGATTGGGAAAAGCTGGCTCTATCTCCCTAGAGCAAAGCGGAGTCACCTAGTGCAG  4280 fluorescence intensity (a.u.)
41. TAGATTGAGACTCCAGTTTTATCTAAGTCTACACCAGAAGCGGAGTCACCTAGTGCAG  4240 fluorescence intensity (a.u.)
42. GCTGACATATTGGCTTCACAATTGCTTTTCTTGTTACTTACGGAGTCACCTAGTGCAG  3990 fluorescence intensity (a.u.)
43. GATCGATTTGGTTTTGTTGATTTGATCTGGCCGGACAAGGCGGAGTCACCTAGTGCAG  3980 fluorescence intensity (a.u.)
44. ACCTAGTTATACTGACAAATTATGGTATACCTAAAATTTGCGGAGTCACCTAGTGCAG  3950 fluorescence intensity (a.u.)
45. ATATATATCATTAGGAGTGCTAATTTATCTATTTGATACCCGGAGTCACCTAGTGCAG  3940 fluorescence intensity (a.u.)
46. ACCAAAATTGGTATGGTTTATATCACTTGAACCATAATAGCGGAGTCACCTAGTGCAG  3860 fluorescence intensity (a.u.)
47. AATTTAACAAATTTTCTTCAGAATTTCTGTCGAGATGTATCGGAGTCACCTAGTGCAG  3730 fluorescence intensity (a.u.)
48. TTTTGATGAATAGGAGTATCACCGTTACCCAGTGGTAATCCGGAGTCACCTAGTGCAG  3530 fluorescence intensity (a.u.)
49. TACCCTAATATAACGTGAGATTTGTAGCTAGTAAATTGAACGGAGTCACCTAGTGCAG  3500 fluorescence intensity (a.u.)
50. GAAAACATTGCTACTAATTGTTTTATATTTTCTAGAAATTCGGAGTCACCTAGTGCAG  3490 fluorescence intensity (a.u.)
51. CATTTATACTGATAGTATAATATTATCAGTAAAGAGCACCCGGAGTCACCTAGTGCAG  3380 fluorescence intensity (a.u.)
52. TGCATTAATGTCCATTTACTCCAATGCACAAATAACGAATCGGAGTCACCTAGTGCAG  3290 fluorescence intensity (a.u.)
53. AACAATTTACATTGTCATTTAGGTAAGATTCAATCTTATTCGGAGTCACCTAGTGCAG  3270 fluorescence intensity (a.u.)
54. ATAATATCGTGTCACCAGCGTGATTTACTGAAACATACCACGGAGTCACCTAGTGCAG  3260 fluorescence intensity (a.u.)
